Some of these densities may be calculated back from excess volumes.
Assay: xn = mol fraction of the nth substance listed
Settings: 101.3 kPa

CC(C)C(=O)O + CCOS(=O)(=O)[O-].CC[n+]1ccn(C)c1
mass density [kg/m3]
Settings | 288.15 K | 293.15 K | 298.15 K | 303.15 K | 308.15 K | 313.15 K
x1 = 0.1122 | 1221.5 | 1217.9 | 1214.3 | 1210.9 | 1207.5 | 1204.1
x1 = 0.2295 | – | – | 1196.6 | 1193 | 1189.5 | 1186
x1 = 0.3297 | 1186.2 | – | 1178.9 | 1175.4 | 1171.8 | 1168.3
x1 = 0.4305 | 1166 | 1162.3 | – | 1155 | 1151.4 | 1147.7
x1 = 0.5464 | 1139.1 | 1135.4 | – | 1128 | 1124.3 | 1120.5
x1 = 0.6412 | – | 1109.9 | 1106.1 | 1102.3 | 1098.5 | 1094.5
x1 = 0.728 | 1086.4 | 1082.3 | 1078.3 | 1074.4 | 1070.5 | 1066.3
x1 = 0.8127 | 1054.6 | – | – | 1042.2 | 1038 | 1033.7
x1 = 0.9073 | 1009.5 | 1005.2 | 1000.8 | 996.5 | 992.1 | 988
x1 = 0.9336 | 994.1 | 989.8 | – | – | 976.8 | –
x1 = 0.9576 | 979.5 | – | 970.6 | 966.3 | 961.7 | 957.1
x1 = 1 | 952.8 | 947.8 | 942.7 | – | 932.6 | 927.5

CCOS(=O)(=O)[O-].CC[n+]1ccn(C)c1 + CCCCC(=O)O
x2 = 0
Settings | mass density [kg/m3]
288.15 K | 1236.3
293.15 K | 1232.8
298.15 K | 1226.3
303.15 K | 1225.9
308.15 K | 1222.5
313.15 K | 1216

CCCCC(=O)O + CCOS(=O)(=O)[O-].CC[n+]1ccn(C)c1
mass density [kg/m3]
Settings | 288.15 K | 293.15 K | 298.15 K | 303.15 K | 308.15 K | 313.15 K
x1 = 0.0974 | – | 1214.7 | 1211.2 | 1207.7 | 1204.3 | 1200.8
x1 = 0.1949 | 1201.5 | – | 1194.4 | 1190.9 | 1187.4 | 1183.9
x1 = 0.2975 | 1181.8 | – | 1174.6 | – | 1167.5 | –
x1 = 0.3947 | – | – | 1153.7 | 1150.1 | – | 1142.9
x1 = 0.495 | 1136.7 | 1133 | 1129.3 | 1125.7 | 1122.1 | 1118.5
x1 = 0.595 | – | – | 1102.2 | 1098.5 | – | 1091.2
x1 = 0.6941 | 1079 | 1075.2 | 1071.5 | 1067.7 | 1063.9 | 1060.3
x1 = 0.7905 | 1044.1 | 1040.2 | 1036.3 | 1032.4 | 1028.5 | 1024.6
x1 = 0.8965 | 997.9 | 993.7 | 989.6 | 985.4 | 981.3 | 977.2
x1 = 0.926 | 983 | 979 | 974.7 | 970.5 | 966.2 | 962
x1 = 0.9529 | 969.4 | – | 960.6 | – | 952 | 947.8
x1 = 1 | 943.9 | 939.4 | – | 930.2 | – | 921.1

CCOS(=O)(=O)[O-].CC[n+]1ccn(C)c1 + CC(C)C(=O)O
x2 = 0
Settings | mass density [kg/m3]
293.15 K | 1232.8
298.15 K | 1226.3
303.15 K | 1225.9
308.15 K | 1222.5
